Results as given in PubChem BioAssay AID504333 (National Center for Advancing Translational Sciences (NCATS), 2011).
The whole screen tested about 360,000 compounds, of which about 16,000 (4.4%) were called active. This list was built around the results that the source calls inconclusive (neither active nor inactive); the mix of calls is not that of the screen. Calls come from the whole dose curve; as a rule, active = well fitted inhibition curve with a large enough effect; inconclusive = small, poorly fitted or top-dose-only effect; inactive = no such curve, though single readings can be large or run the other way. Potencies beside an inconclusive call are fits to weak or partial responses and may not hold up.
% is set by controls: 0 for no effect and ±100 for the full control effect; potency is the fitted concentration of half-maximal effect; tags give direction and shape of the fitted curve.
Note: nearly all actives have a fitted effect of over 60% in size.

Each compound was assayed against Bromodomain adjacent to zinc finger domain protein 2B (Homo sapiens) (UniProt Q9UIF8) (assay: qHTS Assay for Inhibitors of BAZ2B). Settings: AlphaScreen BAZ2B-H3K14Ac peptide displacement; activity change, negative = inhibition: at 114 µM (top of the series).
Sequence of UniProt Q9UIF8 (Q9UIF8 whole entry, looked up, the tested form may be a part): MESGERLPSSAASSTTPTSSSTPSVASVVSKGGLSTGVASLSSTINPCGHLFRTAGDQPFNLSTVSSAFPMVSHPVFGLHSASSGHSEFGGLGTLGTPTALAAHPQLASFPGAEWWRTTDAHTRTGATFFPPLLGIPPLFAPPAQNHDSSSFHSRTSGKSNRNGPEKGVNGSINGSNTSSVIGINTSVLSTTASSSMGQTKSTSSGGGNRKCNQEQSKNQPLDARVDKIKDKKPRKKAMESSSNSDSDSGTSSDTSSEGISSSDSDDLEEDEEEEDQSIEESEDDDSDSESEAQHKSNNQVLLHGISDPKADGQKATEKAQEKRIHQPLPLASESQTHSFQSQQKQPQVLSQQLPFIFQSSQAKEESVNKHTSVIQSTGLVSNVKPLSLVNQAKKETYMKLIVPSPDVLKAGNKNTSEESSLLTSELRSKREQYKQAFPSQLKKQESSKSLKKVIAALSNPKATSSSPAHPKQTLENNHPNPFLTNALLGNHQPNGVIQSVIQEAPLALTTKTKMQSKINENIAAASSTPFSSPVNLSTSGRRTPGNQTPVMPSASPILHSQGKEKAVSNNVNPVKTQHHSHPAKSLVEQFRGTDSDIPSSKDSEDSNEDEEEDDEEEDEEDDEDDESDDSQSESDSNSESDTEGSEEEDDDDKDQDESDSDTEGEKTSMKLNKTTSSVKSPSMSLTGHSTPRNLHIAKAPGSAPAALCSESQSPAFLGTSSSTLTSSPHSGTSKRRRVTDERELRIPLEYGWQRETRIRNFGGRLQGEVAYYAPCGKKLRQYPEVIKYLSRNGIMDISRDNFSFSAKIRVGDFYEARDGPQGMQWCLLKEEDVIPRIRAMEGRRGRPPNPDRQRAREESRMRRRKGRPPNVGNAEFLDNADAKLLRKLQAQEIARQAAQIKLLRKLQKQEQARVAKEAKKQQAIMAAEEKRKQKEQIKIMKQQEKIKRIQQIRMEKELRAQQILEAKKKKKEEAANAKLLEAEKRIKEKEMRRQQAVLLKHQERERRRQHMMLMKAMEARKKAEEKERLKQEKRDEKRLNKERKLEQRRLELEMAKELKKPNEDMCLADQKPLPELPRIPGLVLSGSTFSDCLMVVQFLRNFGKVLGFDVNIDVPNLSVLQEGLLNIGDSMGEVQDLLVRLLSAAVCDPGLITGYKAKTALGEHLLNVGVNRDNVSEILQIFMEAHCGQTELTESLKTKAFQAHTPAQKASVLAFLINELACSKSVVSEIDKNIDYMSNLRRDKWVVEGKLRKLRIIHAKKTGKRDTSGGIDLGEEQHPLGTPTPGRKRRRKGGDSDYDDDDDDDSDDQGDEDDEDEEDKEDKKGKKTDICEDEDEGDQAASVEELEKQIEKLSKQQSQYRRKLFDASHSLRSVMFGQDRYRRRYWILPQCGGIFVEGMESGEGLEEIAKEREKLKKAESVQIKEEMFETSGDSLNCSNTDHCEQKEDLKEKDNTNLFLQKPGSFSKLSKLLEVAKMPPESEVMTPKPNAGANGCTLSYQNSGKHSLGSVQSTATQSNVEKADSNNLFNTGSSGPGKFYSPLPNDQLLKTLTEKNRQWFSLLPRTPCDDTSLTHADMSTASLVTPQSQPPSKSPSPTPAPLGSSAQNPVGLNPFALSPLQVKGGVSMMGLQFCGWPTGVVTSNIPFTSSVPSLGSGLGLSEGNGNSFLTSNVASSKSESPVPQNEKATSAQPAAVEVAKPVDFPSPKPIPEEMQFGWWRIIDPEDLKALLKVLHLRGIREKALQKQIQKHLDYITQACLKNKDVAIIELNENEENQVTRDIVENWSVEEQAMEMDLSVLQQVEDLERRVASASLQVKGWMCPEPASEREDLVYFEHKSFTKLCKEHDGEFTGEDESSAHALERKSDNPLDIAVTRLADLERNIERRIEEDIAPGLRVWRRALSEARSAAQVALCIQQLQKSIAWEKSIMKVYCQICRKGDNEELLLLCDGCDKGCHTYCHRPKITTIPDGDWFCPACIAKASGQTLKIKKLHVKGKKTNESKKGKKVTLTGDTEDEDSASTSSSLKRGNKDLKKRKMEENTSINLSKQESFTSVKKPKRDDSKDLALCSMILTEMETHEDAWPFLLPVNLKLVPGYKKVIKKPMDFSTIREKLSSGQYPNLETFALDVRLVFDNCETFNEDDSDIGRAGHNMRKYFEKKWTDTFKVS
Procedure, shortened: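 Compounds, titrated to a top concentration of 110 uM, were incubated 30 min at room temperature with preformed BAZ2B/acetyl-K14 H3 peptide complex (50 nM each). Proximity signal was measured by AlphaScreen after 20 min with beads.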
For `CC(C)CCNC(=O)C12CN(Cc3ccccc3)CC1C(c1ccc([N+](=O)[O-])cc1)=NO2` (centres undefined), the Potency was inconclusive: 39.8 µM [inhibitor, full curve, poor fit]. `COc1ccc(-c2nc3c(n2O)CCC/C3=N\O)cc1` was tested, and the Potency was inconclusive: 50.1 µM [inhibitor, partial curve]. For `COc1ccc(NS(=O)(=O)c2cc3[nH]c(=O)c(=O)[nH]c3cc2C)cc1OC`, the Potency was active: 79.4 µM. For `C=CCn1c(SCC(=O)c2cc(C)n(Cc3cccs3)c2C)nnc1-c1ccncc1`, the Potency was inconclusive: 89.1 µM [inhibitor, single point]. With `Clc1ccc(-n2nnnc2-c2ccno2)cc1` the “activity change, negative = inhibition” value was inactive: 4.27%. In the case of `COc1ccc(/C=N/NC(=O)c2ccc(C)nc2)cc1O`, the Potency is reported as inconclusive: 89.1 µM [inhibitor, single point]. For `CC(=O)c1ccc(N2CCN(C(=O)CCS(=O)(=O)c3ccc4c(c3)CCN4C(C)=O)CC2)cc1`, the Potency was inconclusive: 89.1 µM [inhibitor, single point]. For `CCOC(=O)c1sc(NC(=O)c2c(C)nn(Cc3ccccc3)c2C)cc1C`, the “activity change, negative = inhibition” value was inactive: -2.03%. In the case of `O=c1[nH]c2ccccc2nc1C(F)(F)F`, the Potency is reported as inconclusive: 100 µM [inhibitor, single point]. `COc1ccccc1CCC(=O)Nc1ccc(S(=O)(=O)Nc2cc(C)nc(C)n2)cc1` was tested, and the “activity change, negative = inhibition” value was inactive: 6.05%. With `CN1CCN(c2ccc(NC(=O)c3ccc(-c4ccc(Cl)cc4)o3)cc2)CC1` the Potency was active: 8.91 µM. In the case of `CNC(=O)CSc1nnc(-c2ccccn2)n1Cc1ccco1`, the Potency is reported as inconclusive: 89.1 µM [inhibitor, single point]. In the case of `COc1ccc(NC(=O)c2cc(-c3cc(OC)c(OC)c(OC)c3)nc3ccccc23)cc1OC`, the Potency is reported as inconclusive: 28.2 µM [inhibitor, partial curve]. In the case of `COc1ccc(OC)c(CNc2ccc(F)c(Cl)c2)c1`, the Potency is reported as inconclusive: 89.1 µM [inhibitor, single point]. `COc1cc(C=C2C(=O)c3ccccc3C2=O)ccc1O` was tested, and the Potency was inconclusive: 8.91 µM [inhibitor, full curve]. For `COc1ccccc1CC1(C)NC(=O)N(CC(=O)N2CC(C)OC(C)C2)C1=O` (centres undefined), the “activity change, negative = inhibition” value was inactive: 11.2%. With `CS(=O)(=O)c1ccc2nc(NC(=O)CS(=O)(=O)c3ccc(Cl)cc3)sc2c1` the “activity change, negative = inhibition” value was inactive: -30.3%. In the case of `COc1ccccc1N1CCN(C/C(C)=C/c2ccccc2)CC1`, the Potency is reported as active: 56.2 µM. With `O=C(N/N=C/c1cn(Cc2ccccc2)c2ccccc12)c1cc(O)cc(O)c1` the Potency was active: 50.1 µM. For `O=C(COC(=O)c1cc(=O)[nH]c2ccc(Br)cc12)c1ccccc1`, the “activity change, negative = inhibition” value was inactive: -1.2%. In the case of `O=C(C[n+]1ccccc1)N/N=C/c1ccc(Cl)cc1`, the Potency is reported as active: 50.1 µM. In the case of `O=C(CCc1c[nH]c2ccccc12)N[C@@H](Cc1c[nH]c2ccc(O)cc12)C(=O)O`, the “activity change, negative = inhibition” value is reported as inactive: -15.4%. For `Cn1c(=S)[nH]c2c(c1=O)C(C)(C)Cc1ccccc1-2`, the Potency was inconclusive: 17.8 µM [inhibitor, partial curve]. With `Cn1nc(C(=O)N2CCN(C(c3ccccc3)c3ccccc3)CC2)c2ccccc2c1=O` the Potency was inconclusive: 70.8 µM [inhibitor, single point]. For `COc1cccc(OC)c1-c1nn2c(-c3cc(-c4ccccc4)n[nH]3)nnc2s1`, the Potency was active: 8.91 µM. For `O=C(CC1SC(N2CCCC2)=NC1=O)Nc1ccc(C(=O)Nc2ncccc2O)cc1` (centres undefined), the Potency was inconclusive: 89.1 µM [inhibitor, single point]. `C#CCOCCOCCOCCNc1nc(N2CCN(C(=O)[C@H]([C@@H](C)CC)n3cc([C@@H](N)CO)nn3)CC2)nc(N2CCN(C(=O)[C@H](Cc3ccc(O)cc3)n3cc([C@@H](N)CC(C)C)nn3)CC2)n1` was tested, and the Potency was active: 31.6 µM. In the case of `Cc1onc(-c2ccccc2)c1C(=O)NC(=S)NNC(=O)c1ccc(O)cc1O`, the Potency is reported as active: 22.4 µM. For `CC1CN(Cc2ccccc2)c2ccccc2NC1=S` (centres undefined), the Potency was inconclusive: 70.8 µM [inhibitor, single point]. With `O=C(Cn1c(=O)n(Cc2ccco2)c(=O)c2c3c(sc21)CCCCC3)Nc1ccccc1` the Potency was active: 50.1 µM. `CCc1cc(-c2n[nH]c(CCC(=O)O)c2-c2nc3ccccc3n2C)c(O)cc1O` was tested, and the “activity change, negative = inhibition” value was inactive: -24.9%. In the case of `COc1cc2c(C(=O)N3CCN(c4ccccc4F)CC3)cn(C)c(=O)c2cc1OC`, the Potency is reported as inconclusive: 56.2 µM [inhibitor, partial curve]. In the case of `CC(C)CCC(O)(CCC(C)C)C(=O)NNc1ccccc1`, the “activity change, negative = inhibition” value is reported as inactive: -5.03%. With `CCOP(=O)(O)c1ccccc1OCCOCCOc1ccccc1P(=O)(O)OCC` the Potency was inconclusive: 89.1 µM [inhibitor, single point]. With `Cc1ccc(CNc2cnccn2)cc1` the Potency was inconclusive: 89.1 µM [inhibitor, single point]. `CC(C)COc1ccc(/C(O)=C2/C(=O)C(=O)N(CCN(C)C)C2c2ccncc2)cc1` (centres undefined) was tested, and the “activity change, negative = inhibition” value was inactive: -0.726%. For `COc1cc(/C=C2\SC(=S)N(NS(=O)(=O)c3ccc(C)cc3)C2=O)cc(OC)c1OC`, the Potency was inconclusive: 39.8 µM [inhibitor, partial curve]. `C/C(=N/NC(=O)c1cc(-c2ccc(Br)s2)[nH]n1)c1ccco1` was tested, and the Potency was inconclusive: 50.1 µM [inhibitor, partial curve]. In the case of `CC(=O)Nc1nnc(SCc2cc(=O)c3cc(C)ccc3[nH]2)s1`, the Potency is reported as inconclusive: 89.1 µM [inhibitor, single point]. With `Cc1ccccc1NC(=S)NC(NC(=O)COc1ccccc1)C(Cl)(Cl)Cl` (centres undefined) the “activity change, negative = inhibition” value was inactive: 8.82%. For `COc1ccc(NC(=O)Cn2c(SCc3cccc(Cl)c3)nc3ccncc32)c(OC)c1OC`, the Potency was inconclusive: 79.4 µM [inhibitor, partial curve]. `Cc1nnc(NC(=O)c2nc(S(=O)(=O)Cc3ccccc3C)ncc2Cl)s1` was tested, and the Potency was active: 56.2 µM. For `C#CCOCCOCCOCCNc1nc(N2CCN(C(=O)[C@H]([C@@H](C)CC)n3cc(CCCN=C(N)N)nn3)CC2)nc(N2CCN(C(=O)[C@H](Cc3ccc(O)cc3)n3cc(CCO)nn3)CC2)n1`, the Potency was inconclusive: 89.1 µM [inhibitor, single point]. For `COc1ccc(N2CCN(C(=O)C(CCSC)N=C3NS(=O)(=O)c4ccccc43)CC2)cc1` (centres undefined), the Potency was inconclusive: 50.1 µM [inhibitor, partial curve].
